According to PubChem BioAssay AID1508642 (National Center for Advancing Translational Sciences (NCATS), 2021):
About 200 (0.47%) of roughly 43,000 compounds were called active. Not shown: some 12% with an inconclusive outcome. The call rests on the fitted dose curve; in most records, active means well fitted cell-killing curve with a large enough effect; inconclusive means small, poorly fitted or top-dose-only effect, or effect the other way; inactive means flat fitted curve, though single readings scatter. The list shows a part of the results.

test: Cell viability qHTS assay in S16 Pmp22-F2sN cells; details: S16 Pmp22-F2sN Schwann cells (luciferase reporters placed in the Pmp22 gene) viability, CellTiter-Glo, 24 h; series mostly up to 57.5 µM; activity change, negative = cytotoxicity: at the top concentration; further: nearly all actives have a fitted effect of over 65% in size
Procedure, shortened: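 S16 Schwann cells carrying the Pmp22-F2sN reporter, seeded in 1536-well format, were exposed to library compounds for 24 h at 37C. Viability was read as CellTiter-Glo luminescence after 15 min at room temperature.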
On the % scale 0 is the no-effect control and ±100 the full control effect; potency means the concentration at half of the fitted maximal effect.

SMILES	activity change, negative = cytotoxicity	Potency
O=C(NCc1ccccc1)c1cc(Sc2cccc(Cl)c2)nc2ccccc12	inactive: 13%	
CCOC(=O)c1cc(OC(=O)c2ccccc2F)n(-c2ccccc2)n1	inactive: 0.13%	
CC1=C(c2ccc(C(C)C)cc2)S(=O)(=O)N=C1N1CCN(c2ccccc2F)CC1	inactive: 1.79%	
Cc1ccc(-c2nc(S(=O)(=O)c3ccc(F)cc3)c(N3CCN(c4ccccc4)CC3)o2)cc1	inactive: -7.42%	
CC(C)C[C@H](N)c1nnc(SCc2ccc(Cl)cc2Cl)o1	inactive: 4.72%	
CCOC(=O)C1CCCN(S(=O)(=O)c2cc(-c3onc(C)c3C)ccc2OC)C1 (configuration not stated)	inactive: -2.75%	
CCOc1ccccc1NC(=O)c1nc(S(=O)(=O)Cc2cccc(C)c2)ncc1Cl		active: 3.16 µM
COc1ccc(S(=O)(=O)N(CC(=O)NCCSc2ccc(C)cc2)c2ccc(C)cc2)cc1	inactive: 12.2%	
CCOc1ccccc1NC(=O)CSc1c2c(nc3ccc(Cl)cc13)CCCC2	inactive: -0.351%	
CC(=O)N1CCC(N(Cc2ccc(C)o2)C(=O)Nc2ccccc2F)CC1	inactive: 11.7%	
Cc1nc2c(c(C)c1CCC(=O)NCc1ccc(F)cc1)c(=O)n(C)c(=O)n2C	inactive: -16.5%	
CC1CCc2onc(C(=O)Nc3ccc(Cl)cc3)c2C1 (configuration not stated)	inactive: 3.4%	
COc1ccc(-c2noc(CNC(=O)c3cc(OC)c(OC)c(OC)c3)n2)cc1	inactive: 6.99%	
COc1cccc(-c2nc(-c3ccc(Br)o3)no2)c1	inactive: -0.078%	
Cc1[nH]c2ccc(C(=O)NCCCN3CCCCC3)cc2c1C	inactive: 7.22%	
Cc1cc2c(cc1S(=O)(=O)N(CCN(C)C)Cc1ccccc1)OCC(=O)N2	inactive: 19%	
COC(=O)c1ccc(NC(=O)c2c(NCc3cccc(F)c3)sc3c2CCCC3)cc1	inactive: 17.7%	
COc1ccccc1C(c1c(O)cc(C)n(Cc2ccco2)c1=O)N1CCCCC1 (configuration not stated)	inactive: 1.46%	
CCC(Oc1ccccc1F)C(=O)Nc1cc(-c2ccccc2)no1 (configuration not stated)	inactive: 2.15%	
COc1ccc(C(=O)NCCn2cc(SCC(=O)Nc3ccc4c(c3)OCCO4)c3ccccc32)cc1	inactive: 9.31%	
Cc1cccc(N2CCN(S(=O)(=O)c3cc(C(=O)Nc4ccc(Oc5ccccc5)cc4)ccc3F)CC2C)c1 (configuration not stated)	inactive: -18.6%	

SMILES	activity change, negative = cytotoxicity	Potency
COc1ccc(CNC(=O)Cn2c(=O)c3cccn3c3cccnc32)cc1	inactive: 0.924%	
COc1ccc(C(=O)Nc2nnc(SCc3cc(=O)c4cc(C)ccc4[nH]3)s2)cc1OC	inactive: -0.169%	
Cc1cccn2c(=O)c(C(=O)N3CCN(c4ccccc4F)CC3)cnc12	inactive: -6.06%	
Cc1nn(-c2ccccc2)c2sc(C(=O)Nc3ccc(Cl)cc3Cl)cc12	inactive: -5.56%	
CCCCN(C)CCNC(=O)c1nn(-c2ccc(OC)c(Cl)c2)c(=O)c2c1c1ccccc1n2C	inactive: 12.1%	
Cc1cc(C)c(S(=O)(=O)NCc2ccc3c(c2)CCN3C(=O)c2ccccc2)c(C)c1	inactive: -21.2%	
CCN(CC)c1ccc2cc(-c3nnc(Nc4ccc(C)cc4)s3)c(=O)oc2c1	inactive: -3.38%	
COC(=O)C1=C(CS(=O)(=O)c2ccc(C)cc2C)NC(=O)NC1c1ccc(C)cc1 (configuration not stated)	inactive: -5.04%	
Cc1ccc(NC(=O)CSCc2cnn(-c3ccccc3)c2-n2cccc2)c(C)c1	inactive: -20.5%	
CCOc1cccc2sc(N(Cc3cccnc3)C(=O)C3CCCCC3)nc12	inactive: 2.42%	
CCc1ccccc1NC(=O)c1ccc(F)c(S(=O)(=O)NC2CCCCCC2)c1	inactive: 14.8%	
COc1ccc(C)cc1NCc1nnc2n1CCCCC2	inactive: 5.88%	
O=C(CCCCn1c(=O)c2ccccc2n(Cc2ccc(Cl)cc2)c1=O)NCc1ccccc1Cl	inactive: -4.31%	
COc1ccc(-c2cc(C(=O)Oc3cccc(C)c3)c3ccccc3n2)cc1	inactive: 1.59%	
COc1ccc(NC(=O)C2CCCN(C(=O)c3cnn(-c4ccc(F)cc4)c3-n3cccc3)C2)cc1 (configuration not stated)	inactive: 12.1%	
COc1ccc(NC(=O)CSc2nc3ncccc3[nH]2)c(OC)c1	inactive: 0.632%	
Cn1c(=O)cc(OCC(=O)N2CCN(c3ccccc3)CC2)c2ccccc21	inactive: 1.03%	
CN1CCN(C(c2ccccc2Cl)c2sc3nc(-c4ccco4)nn3c2O)CC1 (configuration not stated)	inactive: 0.28%	
CCC(=O)N1CCc2cc(Br)cc(S(=O)(=O)N3CCN(c4ccc(C(C)=O)cc4)CC3)c21	inactive: -1.84%	
Cc1ccc2ncc(C(=O)NCc3ccccc3Cl)c(=O)n2c1	inactive: -15.3%	
CC(=O)Nc1ccccc1-c1nc2ccccc2n(CC(=O)c2ccc(C)c(C)c2)c1=O	inactive: -1.58%	

SMILES	activity change, negative = cytotoxicity	Potency
CCCS(=O)(=O)c1ncc(Cl)c(C(=O)N2CCN(c3ccc(OC)cc3)CC2)n1		active: 5.01 µM
COc1ccc(OCC(=O)NCC2(N3CCN(C)CC3)CCCCC2)cc1	inactive: 7.44%	
CCCCNC(=O)CCC(=O)NNc1nc2ccccc2c2nc(-c3ccccc3)nn12	inactive: -11.2%	
CC(C)(C)OC(=O)N1CCC(c2c(C(=O)NC3CCN(Cc4ccccc4)CC3)cnn2-c2cccc(F)c2)CC1	inactive: -18.8%	
Cc1cccc(C(=O)Nc2c3c(nn2-c2ccc(Cl)cc2)CS(=O)(=O)C3)c1	inactive: 2.53%	
O=[N+]([O-])c1cc(-c2nc(-c3ccccc3)no2)ccc1NCC1CCCO1 (configuration not stated)	inactive: 14.7%	
CCOC(=O)c1ccc2c(c1)N(Cc1cccc(OC)c1)C(=O)c1ccccc1S2(=O)=O	inactive: -0.753%	
Cc1oc2c(c1C(=O)Nc1cccc(Br)c1)C1=NCCN1C=N2	inactive: 6.17%	
COc1cc(NC(=O)c2c(-c3ccc(C)cc3)nnc3ccccc23)cc(OC)c1OC	inactive: -3.43%	
O=C(Cn1nc(-c2ccccc2)ccc1=O)NCc1ccc(F)cc1Cl	inactive: 0.583%	
COc1ccccc1CNC(=O)CC1N=C2c3ccccc3N=C(SCC(=O)Nc3ccc(F)cc3)N2C1=O (configuration not stated)	inactive: 0.0747%	
CCOc1cc(C(=O)Nc2ccc3oc(-c4ccc(F)cc4Cl)nc3c2)cc(OCC)c1OCC	inactive: 1.2%	
COc1ccc(N(Cc2cccs2)C(=O)c2ccccc2C)cc1	inactive: -6.38%	
Cc1ccc(NC(=O)c2cc(C)nn2-c2ccccc2)cc1	inactive: 7.31%	
CC(=O)Nc1ccc(NC(=O)CCCc2nc(-c3ccc(C(C)(C)C)cc3)no2)cc1	inactive: 3.26%	
CC(=O)c1ccc(N2C(=O)N(Cc3cccc(C(F)(F)F)c3)c3ccccc3S2(=O)=O)cc1	inactive: 24.4%	
CC1=C(C(=O)OC2CCCC2)C(c2ccc(F)cc2F)CC(=O)N1 (configuration not stated)	inactive: 23.2%	
COc1ccccc1NC(=O)CCS(=O)(=O)c1ccc2nc(C)sc2c1	inactive: -6.93%	
CC(=O)N1CCC(N(C(=O)Nc2ccc(C)c(F)c2)C(C)C)CC1	inactive: 0.299%	
Cc1ccc(NC(=O)c2oc3ccccc3c2NC(=O)Cc2cccs2)cc1	inactive: 10.9%	
